Data published in the RNAGym collection of RNA variant scans (doi:10.1073/pnas.2313332121).
This sample is rich in variants without activity.

B1: TPR 5TU (parent)
chain: GGAUCUUCUCGAUCUAACAAAAAAGACAAAUCUGCCACAAAGCUUGAGAGCAUCUUCGGAUGCAGAGGCGGCAGCCUUCGGUGGCGCGAUAGCGCCAACGUUCUCAACUAUGACACGCAAAACGCGUGCUCCGUUGAAUGGAGUUUAUCAUG

Variants of: B1
Test: polymerase ribozyme fitness, log enrichment relative to wild type (log ratio); higher = more active; in vitro selection for triplet polymerase activity
How it was run: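 Each subunit of a heterodimeric triplet polymerase ribozyme was represented by a PCR-built, transcribed mutant library that underwent triplicate single-round in vitro selection with frozen incubation at −7 °C. Extended constructs were recovered by gel excision, streptavidin-bead capture and RT-PCR, and Illumina sequencing of input and output libraries kept genotypes with ≥10 input reads and ≥1 read per output. Fitness is the logarithm of genotype enrichment relative to wild-type enrichment, from inverse-variance-weighted replicate averages, with a logarithm base of 2.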

Polymerase ribozyme fitness (log ratio), ≤ -4.2:
U15A A16G C51G C93G A97U C118U A121G
U13G A66U G83U
C14G G86C A147G
A12U U31C A66G C79G A89G
U13A A66G C79U C87A G92C U101G U109C U145G
C14G G83U A97U U144A A150U
A12U U13A U15A C27A A40G A49C C116A
A12U A20G G50A C76U G88C A119C U135C U144A
C14G G81U A97U A106U
C14G U55A U56C G68U A91U
C14G A20U A39U G92U G133C U134C C149G
C14U A16C A22U C99A G143C
U13G A47U C57U G86U C95G C103G C118U C123G G128A
C14G A17C G58A A64U U90G
C14A C51A U55A A97C C114A A115U C116G U145G
U13G A21C G48A U55C G81A G92C C114U G126A
A12G A28C U53C A73U U109G
A12U C72G G84A A91C G94C U111C
C14U C51A G84U U134A U146G
U13G A26C A37U C95U U148G
C14G G86U C87A C95A U104A
C14G C51G U56G G94U G124A A147G A150C
A12G A30G U45A G86A
U15A A30C C35G C76G U77G C95A C118U G141U
A12U A26G C32A G81U C85U A106C C108A C114U G136C G141A A142U
A12U C57U U90G C95U U102C A119U C129U
C14U U33A G68A C96G
C14U A17G A22G U31C G84A G86U C99A
A12G A49C C51G U55A G58A U77C C79G G86C C95G
C14U U44A U61A C75U U102C C131U
A12U A39G C51U C75U C79A G94A
C14U U53G C95A C96G U102G A107G G141A
U13G A41G G42A U82C U135C G141U
C14U A17U C76A C85G C105U U135A
C14U G84A C108G G112A
C14U C32G C93U C95U A119C G143A
U13A C54G U101G G117A
A12G G67A G86A G140C
U13G U148G
A12U U53G A66G A91G A98U C105G A142C
C14U C27U A28C C36A C85G
A12G U53A U55A G58C U77G C93A A107U C132A
A12U G46A U104C A110G A119G
C14U A19G C27U A28G U31G C75A C99G G143A
U15A A17U U33G G65A C76U G94A
U13C A20C A47U C118G A142C
C14G A26U A39U A52G C63U A113U G141U
A12U C27G C75A C79G G92U A121C C131G A147C
A12G A29C U55G A64C G70C C118U A138U
U13C G84U C96U G141U C149G
A12U G86U C96U A97U C103G
U13G A107U
C14U U33C U45A A120G
U13G G70U C93U C103G C131U A137G U146A
U13A U53C C79U C87A
A12U C69U C85G A107C C131U U134G
C14G A29G C93G
C14G G42U G50C G92A U111G U151G
C14G U56A G88U G92C C116U G140U U145A
C14A A40U A52C C116A A150G
C14A U31C G42U U44A C79G C95G C105A A119C
C14U U31G A73C G92U
C14A A41C U135C
U13A A20C A26U A29U A47C C85A A98U U127C
C14A A49C G80A G88C
U13G C14A A19U A22U C87G C114U
C14G C27A A49G U82G
A12U G34A C57G C69A G88U
U13C A16G C36A A37C C57A G67A C72U U102C
A12U U33G A49C C87U A107G G117A U127A
U13C A28C U61A A66U G70C U77A G81U G92U
C14U A21C A26G U56A C87U U102A
A12U A22C G65A C93U U109C
C14U C96U G128U A137G
C14U A23C C85U A107G U130A
A12U A24U A41G C85A G92C
C14A A40G C132U A138C
A12U C36A C63A C87A A107U C129U G136A
A12U A26C A49G C93G C95U A113G
C14A G42U A66G C93A G117A
U13C U15C A26U C69U A73U G92A
C14A G70C C87G
U13C A17G A30U A41C U77G U90C U151G
A12G A64C U78G G80A G133U U145C
C14A A28C C51G G94C A98G A110G
C14A A40G C69G A91G
C14A A49C A52U C72G G84U C87U C123G
U13G C14U A28G A40U C51A A52U U55A C57A G71C C85G C114G
U13G U56A C75U C95A C96G U104G G133U
C14A A19G A39C U90G C95G U144A
C14G A23G U44G G83C
C14G U44G C75G G83U U151C
U13G A20G C57U C87G U151G
C14U C43U C51G G143A
U13A A52C C69A U78A G92C C114U
C14U G25C A52C U56A G67U C85U A115C
C14A G71A C123U G126A
C14A A24U U90A C93A A107G U111G C114G G124U
A12G C27U A28C G50C A66U G86C
U13A A49G U53A U55A A115G
U13G C32G U44A A91C C99G G133A
C14U A28C G48C G71C G86U
C14A C63U G124A G126U A138G G140A
C14G C32G G50U G92C U104G G117U
U13C A29C G48A A49G
A12G G67A U90A A106G A113U U134A
U15A A17G G25U A49U A89C U102A G141A U146C
U13G U44A G67C U82G C95A C96U C103A G141A
C14A C36A U90G G100A A122C
C14U A24G C51A U55A C85U G86A C118G G141A
U13G A22U C85U G100C C125G
U13A A20G A21G G34A A52G
U13A A26G A40G G67C G81A G84U C85A A106U C108U C114A G143C U145A
A12U U15C A30U U45A C69A C85G A115U
C14A A29C A52G C85U C96U C108G C131A U135A U146A
A12U A16C C54A C93G
U13C C18G U55A C87A
C14U G50C C51U C96A C125G
A12U U53A C57U C85A G143U
C14A U45G C96A C129G
C14A A52C C69U
A12U C18G A20C A37C U77C C99U
A12G C75G C87A G92C C123G A137C
C14G G68U G86U
U13C C93U C96G C149U
A12U A16G C43G G92A C108G U130G
U13A A16G G86U C99U G152A
C14U G59A C63U C76G
A12G A30C C38A A91U
U13C G88A G94C C99U
C14G A41G G80U A98C C99U C103G
U15A A23C G80U C85U U104G C105G G126A G143U
C14A G46C U55A G67A C87G G126A C132G
C14G G71C G80A C85G G94U C116U A120G
U13C C54U A89U C95G C99A
C14G C38A C96U C114A
A12U A29U C32U A39C G67A C93A A137G
C14A G84A C118A C125A A137U C149U
U13G U33G G88C
C14U A17G C38U G58C C76U G94A G112C
A12G C18U G67U G70C G94U U102A C114A A137C G140A A150G
U13G G46U C87U C105U A142G
C14U C54U G84U A98C C105U A106G U111A C118A
A12U G48A U55A G65A G68C C85G G88U C93U A106C U111A G112C C114G C125A
C14U A17G A39G U44A A107U A150G
C14G C51U C72G C85G C132U
C14G G86A U101C C108U C125U
A12U C14G A64G U144G
C14U A20U G48A C72U C87U
U13G C18G A52G C57A G94U G117U A121C C131G
U13A U33G G70U G83U C103G C131G
U13G C27A C36U A47U G58U C69G C93G C96G U148A
A12U A20G A24U A47G C75G C108U C129A
A12G G92A G94A G117U U135G G143C
C14G U61A G65U C72G
A12U G25C C38U C54U C75G C93A A121U C149U A150G
U13A C27U A41U C76A
A12U C14A A30G U53A A97G C99A G128C
A12U U13A A21U A23G U44A G50U C87G A91G
A12G C36U A73U C76G C87G C116A C118G
U15A A29C A41C G74U G88A C96A G128U U130G C131G
A12G A73U C76G G141U
A12U G83C G136C
C14A G65A C87A G140C
C14G U56A C63U U82A G88A
U13C C18U U55G C76U G81C C131G
C14G C35G A64U U82A G84A C118U
